Measurements as given in PubChem BioAssay (NCI).
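Cells were grown in 96-well plates and exposed to each compound for 48 hours at five concentrations; endpoints were interpolated linearly between bracketing concentrations, or set to the highest concentration if not reached. Abbreviation: GI50, concentration required for 50% inhibition of growth. Definition used: TGI = concentration required for complete inhibition of growth.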

The compounds below were run on NCI-H322M lung (assay: inhibition of tumour cell growth, NCI panel, 48 h).

SMILES	GI50 [µM]	TGI [µM]
Cc1ccc(-c2nnc(SCc3ccc(O)c4ncccc34)n2-c2ccccc2)cc1	0.376	> 100
COc1ccc(/C=N\NC(=O)c2ccc3nc(-c4ccc(Br)cc4)[nH]c3c2)cc1	2.99	10.5
Brc1ccc2[nH]cc(-c3nn4cc(-c5nccs5)nc4s3)c2c1	8.17	> 74
